In the supplement of paper PMC11417369:
The other results are listed elsewhere or left out.

Test system: PF3D7_0420300 AP2 domain 1 (GST-tagged)
Test: gcPBM binding intensity (ln(normalized median fluorescence intensity)); higher = stronger DNA binding
Summary of the method: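 Using an Agilent 4 × 180k array, primer-extended double-stranded 36-bp intergenic genomic probes and negative controls were exposed for 1 h to GST-fused P. falciparum DNA-binding domains expressed in E. coli. Binding was carried out in 1× PBS with 1% milk, 0.2 mg/ml BSA, 0.5% salmon testes DNA and 0.03% Triton X-100, and protein was detected with Alexa488 anti-GST antibody and a 488 nm scan. Binding intensity is the highest Masliner-normalised natural-log median intensity across replicate spots of either probe orientation.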

In order of rising “gcPBM binding intensity (ln)” value:
1. ATATTATCATTTTTTTTAATGGAAAAAAAAAAAAAA [CACACA_negctrl_site1298]  8.65
2. AGAAAACTCGCTTTTCTAAATCTCAAAAAAAAAAAA [XGTACX_negctrl_site94]  8.73
3. ATTATGAATTTTAATTGTACATTATTATAGAATGTA [XGTACX_site619]  8.86
4. TATTTTTCTTTTTAAAAATATATCACATGAACATTA [XGTACX_negctrl_site183]  8.88
5. TTTTTTTTTTTTTTCTGTACAAATTAAATCTACATA [XGTACX_site8285]  8.93
6. CACTTTTTTTAAATGTGTACGTATATGAAAATATCA [XGTACX_site4854]  8.94
7. GCATATGATGAGCATATAATCATAAGAAAAAAAAAA [CACACA_negctrl_site701]  8.98
8. TTTGTAAGAAATAAATGTACAAAAATTAATTTTTAT [XGTACX_site8983]  9
9. TGATTAATAATTTTCTTCATACATTAAACATCTTTT [TGCATGCA_negctrl_site342]  9.02
10. TATTTTAATGAATTCACACATATAATTTATTTTATA [CACACA_site4538]  9.03
11. TTATATTTCTTGAAGGGTACATACCATTATTTTTAA [XGTACX_site1159]  9.03
12. ATTAATTATATAATATGTACATATTACAAATATATA [XGTACX_site1478]  9.04
13. TACTTTTATAAAAATTTTATCAAATTCTATATATGT [TGCATGCA_negctrl_site308]  9.05
14. TTTTAAATTTAGTGTAGTACACTTTTTTCAAATATA [XGTACX_site4659]  9.05
15. ACAAAAAAAAATATGTTAACTATATATATATATATA [CACACA_negctrl_site346]  9.07
16. TTTTTATCAAATAAATGTACACATATTAAATGAAAT [XGTACX_site555]  9.08
17. TACATCAAACAAGTATGTACATATATATATATATAT [XGTACX_site7415]  9.1
18. ATATTAAAATTAAACGCATGCATATATTATAAAAGA [TGCATGCA_site231]  9.11
19. TAATTAACCTATGCATTCATATAGATACATAAATAT [CACACA_negctrl_site885]  9.11
20. CCTTTCCTAGCACATGCACACAAAAAAAAAAAAAAA [CACACA_site8396]  9.12
21. TGAATACATAAATATAGTACATATATATATATATTA [XGTACX_site8756]  9.13
22. TTTAATTTGATAGACACATGCACACGTGCAATACTT [TGCATGCA_site777]  9.15
23. ATATATATATATAAATGTACAGATATATTTTTTATT [XGTACX_site5445]  9.16
24. TTATATCTTATAAAATGTACATAAAATATATAATAT [XGTACX_site7647]  9.16
25. ACATTTTGTAAAGAATGTACATATATATATATATTC [XGTACX_site8004]  9.16
26. TTCTGTATAACACAAATTTTTTTTTATTCACTCTGT [TGCATGCA_negctrl_site410]  9.19
27. ATATTTTTCTTAAGTACACACTAAATAGAAACTAAA [CACACA_site4191]  9.2
28. AATAAATAGTAGTAGGTGCTACTATATTATATATAT [GTGCAC_site9452]  9.2
29. AAAAATTCTTCCCAAGCATGCGCGCGTAAAATATTT [TGCATGCA_site77]  9.2
30. TATAATATTATTTGAAGTACAAACATAAAAGAATTA [XGTACX_site3161]  9.21
31. ATATACATATCATGTAGTACAATTTTTTTACTTTTT [XGTACX_site7988]  9.21
32. ATATAAAACTAATTTCTTTTTCTCCTTTTATTTTGT [CACACA_negctrl_site1251]  9.23
33. AAATTTTTTATTAGTAGTACGCATAAATATATGTAT [XGTACX_site1934]  9.23
34. ATATTTAAAAAATGATGTACAAAAATGTAGTCACAC [XGTACX_site6208]  9.24
35. AAACGGCTATTAAAATGTACATGTAAATATATTAAA [XGTACX_site918]  9.24
36. AATTGGGAACTGTAATGTACATATATTGAAAGTATA [XGTACX_site7081]  9.24
37. ATATATATATCAAAATGTACAAAAATAGAATTTAAA [XGTACX_site8292]  9.26
38. TAAACAAAAAGGAAGAGTACTTGTAAAATTTGTAAA [XGTACX_site3003]  9.26
39. CAGTAGTTTTTATGGGTGCAAAACATATATATAACA  9.29
40. TTTTGTTGTATGATAATTCTTTTATCAATATGTCTT [TGCATGCA_negctrl_site567]  9.29
41. ATAGTATCTGGTAGCTGTACGAGTCGTAGAGTGTAA [XGTACX_site4936]  9.3
42. TACAAAAAATTATGGAGTACATATATAATATACAAT [XGTACX_site1004]  9.3
43. ATATAATTCAAATACAGTACATATACAATATATACA [XGTACX_site1191]  9.3
44. TTTTTTTTTTCATTAACACACATAAATATATATATA [CACACA_site5759]  9.32
45. ACCAAATTATCAAATGGTACACATAAAATAATAAAA [XGTACX_site865]  9.32
46. TATGTATATTTTAATTGTACGTGTATGGTTGTAAAT [XGTACX_site8738]  9.33
47. ATTTTCTATATCTTTCAACACACAAATTTTTTTTTC [CACACA_site7918]  9.36
48. TTAATGTTATATGTGTGTACATATAAGTTTAGTAAA [XGTACX_site4651]  9.37
49. TTATTCTTTTAATATACACACTTTGTCTTTTCGCGC [CACACA_site5525]  9.37
50. GCACCCTGTATGAATGCACACATTCATAGAATTGCT [CACACA_site5475]  9.38
51. AAAATATTCACGTGTACATATATATATATATATTAT [TGCATGCA_negctrl_site192]  9.39
52. GGAAATAATATTATTACACACCAAAATGTATAAAAA [CACACA_site4036]  9.39
53. TAAAAAAATAAAATTACACACATATATAGATATATA [CACACA_site7273]  9.39
54. GAACCATTTTTTGGTATACACACGTAATTATAGAAT [CACACA_site1851]  9.4
55. TATATATATATAGATGCATGCAATTACATATAACAA [TGCATGCA_site118]  9.41
56. AATACATATGGGTGTACACATTATATATATATATAT [CACACA_site4601]  9.41
57. TATTTATTTGTACATATACACACTTAAATATGTTTA [CACACA_site3902]  9.41
58. CACTAATAGTGGATTACACACATATATCTGTATTTA [CACACA_site5403]  9.42
59. AAAATTAAAATATCACGTACGAAGAAAAAATTAAGA [XGTACX_site6437]  9.43
60. AAAAAAAAAAGAAAAGGTACACAGAATATATATATA [XGTACX_site6914]  9.45
61. AGATCATAATATTATACACACATTATGTATATGTAA [CACACA_site1490]  9.45
62. ATATATATAAAAGAAACAACATTTATTCAAAAGGTA [CACACA_negctrl_site749]  9.46
63. GAAATTAAATGACATACACACTATATTATAGATTTT [CACACA_site7468]  9.47
64. AATAATTCTTAAAGGTGTACAATATGTATATAAGAA [XGTACX_site595]  9.47
65. ATACATATATTAGGATGTACGTTTATTTTAGTTATT [XGTACX_site7169]  9.47
66. AACACTTCATACACGTGTACAAATATAATATAGACA [XGTACX_site5671]  9.48
67. CATGAATATTTATACATGCACACTAAAATAAAGAAT [CACACA_site2412]  9.48
68. GACATAAAATTCAAAGTGCATAAATAAAATAAACCC  9.49
69. AAAAAATGCGACATGTGTACACATATATATATATAT [XGTACX_site1679]  9.5
70. ATTCAAAAGATGTATACACACATGTGGATAATATAA [CACACA_site2443]  9.5
71. AATATATATTAATAAAGTACAGGAAATATTTTTACC [XGTACX_site7052]  9.51
72. TATGTAATAATAAACGGTACACTATATTGTATGAAA [XGTACX_site4648]  9.52
73. TACTAAAAAATATAAACACACATATATTTTACATAT [CACACA_site2042]  9.55
74. TATTTCATAATAAATTGTACGCGTAGAAAACCATGA [XGTACX_site7506]  9.55
75. AATAACAAAATAGGCACACGCACATATATATATATA [CACACA_site1497]  9.57
76. AAATAGATAAGTAGGACACACATATATATATATTAA [CACACA_site1862]  9.59
77. CTAATTAATGGGTACATACACACATATATACATACA [CACACA_site743]  9.62
78. ATATATTTATATATTACACACAATATTGGAGACATA [CACACA_site931]  9.62
79. TTGTGTACATATTAAGTGCATATATATATATATATA  9.64
80. AATAATATAACAGAACAAAACTAAATATACACATAT [TGCATGCA_negctrl_site31]  9.78
81. GAGGGTATAATAAAAGCACACACAAAGATATAAATA [CACACA_site9087]  9.84
82. ATCTTTTTACTTAATACACACACACCCAAAAAAAAA [CACACA_site8221]  9.88
83. AGTTATTTTTATATTTCACACACATATACTTTTACA [CACACA_site9357]  9.88
84. GTTTCTATTCACATTTTACACACGTCCATCGCATTT [CACACA_site9142]  9.99
85. TACACCCACCAACACACACACACACTAATAAAAAAA [CACACA_site8060]  10.1
86. TATATATATATATACACACACACACCCCAAAGCGTA [CACACA_site64]  10.1
87. AAAAAAATAAGACACACACACAAAAAAATAAAAATA [CACACA_site6357]  10.1
88. AAAATACATAGACACACACACACACGGATATAAATA [CACACA_site7643]  10.2
